Some of the results follow. Each Rep nickase domain was tested in vitro on the same pool of single strands at 3 µM enzyme and 37 °C for 1 h; the strands have 90 letters, of which the middle is given. Values are log2 of uncut reads against the no-enzyme pool; the lower, the more was cut; hits are not called. The scaling is to total reads; uncut strands gain when others are lost, and binding without cutting may add a little.
What was measured:
Assay in all cases: uncleaved DNA left, log2 of reads against the no-enzyme library (log2 ratio); higher = less cleavage (more negative = more Rep cleavage of the k-mer); sequences stand for … in CTCGTCCG…ACCGGAGA
[1] = test system: T1, Rep nickase domain of Muscovy duck circovirus
T1 sequence (protein, residues 1-111, tag omitted): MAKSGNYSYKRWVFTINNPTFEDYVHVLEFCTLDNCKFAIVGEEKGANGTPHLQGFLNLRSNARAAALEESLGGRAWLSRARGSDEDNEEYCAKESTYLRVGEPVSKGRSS
Method: (§1)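 A pool of 90-nt single-stranded DNAs with seven random bases just before the constant AC of the nick site (name = the seven bases) was cut by 3 µM recombinant His6-SUMO-tagged Rep nickase domain (300 nM DNA, 50 mM HEPES pH 8.0, 50 mM NaCl, 1 mM MnCl2, 1 h, 37 °C, three replicates). Uncut DNA was amplified and sequenced.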

[2] = test system: T2, Rep nickase domain of banana bunchy top virus
T2 sequence (protein, residues 1-94, tag omitted): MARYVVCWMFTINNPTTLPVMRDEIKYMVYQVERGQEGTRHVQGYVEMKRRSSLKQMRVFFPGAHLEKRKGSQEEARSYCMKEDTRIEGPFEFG
Method: as §1

[3] = test system: T3, Rep nickase domain of cabbage leaf curl virus
T3 sequence (protein, residues 1-116, tag omitted): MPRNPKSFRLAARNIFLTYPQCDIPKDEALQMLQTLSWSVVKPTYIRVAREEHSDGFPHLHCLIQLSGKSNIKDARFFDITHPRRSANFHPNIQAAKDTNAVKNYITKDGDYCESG
Method: as §1

[4] = test system: T4, Rep nickase domain of chickpea chlorotic dwarf virus
T4 sequence (protein, residues 1-124, tag omitted): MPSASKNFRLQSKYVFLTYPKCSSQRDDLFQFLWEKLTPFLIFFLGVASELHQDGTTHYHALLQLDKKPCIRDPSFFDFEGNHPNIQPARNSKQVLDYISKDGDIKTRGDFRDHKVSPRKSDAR
Method: as §1

[5] = test system: T5, Rep nickase domain of faba bean necrotic yellows virus
T5 sequence (protein, residues 1-98, tag omitted): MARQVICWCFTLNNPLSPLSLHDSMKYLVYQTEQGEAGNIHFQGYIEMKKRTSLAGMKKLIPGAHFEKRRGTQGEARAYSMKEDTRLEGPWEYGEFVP
Method: as §1

[6] = test system: T6, Rep nickase domain of maize striate mosaic virus
T6 sequence (protein, residues 1-117, tag omitted): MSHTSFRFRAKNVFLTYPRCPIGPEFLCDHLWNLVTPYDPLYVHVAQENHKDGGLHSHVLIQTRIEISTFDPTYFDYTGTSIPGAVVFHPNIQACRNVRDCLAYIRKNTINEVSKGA
Method: as §1

[7] = test system: T7, Rep nickase domain of porcine circovirus 2
T7 sequence (protein, residues 2-116, tag omitted): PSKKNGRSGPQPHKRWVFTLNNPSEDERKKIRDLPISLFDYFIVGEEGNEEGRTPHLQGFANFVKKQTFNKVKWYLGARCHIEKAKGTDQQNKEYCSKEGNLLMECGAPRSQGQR
Method: as §1

[8] = test system: T8, Rep nickase domain of tomato golden mosaic virus
T8 sequence (protein, residues 1-124, tag omitted): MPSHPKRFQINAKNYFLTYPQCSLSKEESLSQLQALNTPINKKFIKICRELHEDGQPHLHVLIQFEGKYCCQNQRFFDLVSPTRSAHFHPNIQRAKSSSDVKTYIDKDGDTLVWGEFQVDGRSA
Method: as §1

[9] = test system: T9, Rep nickase domain of tomato yellow leaf curl virus
T9 sequence (protein, residues 1-136, tag omitted): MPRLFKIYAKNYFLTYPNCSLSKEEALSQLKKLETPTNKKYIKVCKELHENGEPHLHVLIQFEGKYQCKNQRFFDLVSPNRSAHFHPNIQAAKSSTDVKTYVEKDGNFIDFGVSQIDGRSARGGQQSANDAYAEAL
Method: as §1

[10] = test system: T10, Rep nickase domain of wheat dwarf virus
T10 sequence (protein, residues 1-137, tag omitted): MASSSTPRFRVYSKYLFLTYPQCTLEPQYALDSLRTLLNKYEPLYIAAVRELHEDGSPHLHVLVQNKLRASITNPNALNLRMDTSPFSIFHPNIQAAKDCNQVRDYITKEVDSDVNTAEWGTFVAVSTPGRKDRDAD
Method: as §1

Row | Sequence | uncleaved DNA left (log2) [1] | uncleaved DNA left (log2) [2] | uncleaved DNA left (log2) [3] | uncleaved DNA left (log2) [4] | uncleaved DNA left (log2) [5] | uncleaved DNA left (log2) [6] | uncleaved DNA left (log2) [7] | uncleaved DNA left (log2) [8] | uncleaved DNA left (log2) [9] | uncleaved DNA left (log2) [10]
1 | CTGTAGT | -1.58 | -0.36 | -0.464 | -0.949 | -0.669 | -0.961 | -3.52 | 0.0907 | -0.109 | -0.123
2 | ACTCGAG | -0.101 | -0.044 | -0.304 | 0.382 | -0.0399 | -0.835 | 0.00995 | -0.109 | -0.000531 | 0.0158
3 | GAGACCG | -0.035 | 0.0811 | -0.216 | -0.0309 | -0.0597 | -0.43 | 0.228 | -0.0309 | 0.109 | 0.0688
4 | CGGAATT | -0.0978 | -0.0612 | 0.383 | -0.03 | -0.0806 | 1.17 | -0.467 | -0.219 | -0.00592 | 0.108
5 | TTGTGTT | -2.76 | -1.79 | -1.02 | -2.65 | -2.23 | -1.2 | -3.11 | -0.429 | -0.0941 | -0.538
6 | AACGAGA | 0.00473 | 0.0461 | 0.68 | 1.18 | 0.101 | 1.01 | 0.0279 | 0.0808 | -0.0858 | 0.111
7 | TCGCAAT | -0.0381 | 0.135 | 0.559 | 1.58 | 0.00776 | 1.38 | -0.155 | 0.168 | 0.00282 | 0.0639
8 | CCCCGAC | 0.077 | 0.0192 | 0.205 | -0.112 | 0.138 | -0.376 | -0.0692 | 0.0634 | -0.0301 | 0.0344
9 | AGCATAG | 0.00749 | 0.0736 | -0.374 | -0.329 | 0.0259 | -0.95 | 0.175 | 0.0597 | 0.0751 | -0.0122
10 | CACCGTC | -0.0576 | -0.173 | -0.147 | -0.498 | -0.164 | -0.762 | -0.0422 | -0.137 | -0.275 | -0.0598
11 | CATTCGT | -0.246 | -0.634 | -1.01 | -0.765 | -0.0367 | -1.18 | -1.11 | -0.258 | -0.119 | -0.242
12 | CGATTGC | 0.0575 | 0.0901 | -0.472 | -0.177 | 0.0124 | -0.814 | 0.178 | -0.0602 | 0.0463 | 0.0801
13 | AGTCGAG | 0.0714 | 0.0511 | -0.14 | 0.242 | 0.0945 | -0.565 | 0.069 | 0.149 | 0.0897 | 0.119
14 | AACGAAG | -0.0557 | -0.0139 | -0.738 | -0.623 | 0.0785 | -1.12 | 0.153 | -0.0751 | -0.123 | -0.2
15 | ATACATT | -0.0618 | -0.0873 | -0.417 | -1.84 | -0.107 | -0.306 | -0.323 | -0.0923 | -0.00361 | -0.181
16 | ATCTATT | -3.31 | -3.44 | -1.22 | -2.81 | -1.06 | -0.858 | -3.63 | -0.173 | 0.00435 | -0.645
17 | CACAGTG | 0.212 | 0.0496 | -0.767 | -0.531 | 0.196 | -0.91 | 0.18 | 0.25 | 0.165 | 0.0552
18 | TACTACC | -3.18 | -0.668 | -2.36 | -2.77 | -2.59 | -0.453 | -3.61 | -0.939 | -0.198 | -2.02
19 | AGCCACT | 0.0166 | -0.0419 | 0.0434 | -0.0101 | 0.0723 | 1.24 | -0.0414 | 0.0349 | -0.0262 | 0.0774
20 | GTGTAGC | 0.148 | 0.0684 | 0.406 | 0.936 | 0.085 | 1.66 | 0.151 | 0.238 | 0.138 | 0.093
21 | GCCATCA | -0.00306 | 0.0946 | 0.0678 | 0.227 | -0.0275 | -0.0159 | 0.0464 | 0.0519 | 0.114 | 0.0242
22 | GCTTTCC | -0.0295 | -0.0474 | 0.197 | 0.429 | -0.125 | 0.367 | 0.0182 | -0.0983 | -0.0691 | 0.00321
23 | GAGCTGA | 0.158 | 0.142 | 0.346 | 1.58 | 0.0134 | 1.71 | 0.147 | 0.183 | -0.0272 | 0.141
24 | TGTTGAT | -0.323 | 0.0364 | 0.202 | 0.24 | 0.158 | 0.81 | -1.22 | 0.0764 | 0.0949 | 0.0624
25 | TTATTAG | 0.116 | 0.0172 | -0.751 | -0.453 | 0.127 | -1.31 | 0.276 | 0.0041 | 0.0837 | 0.0248
26 | TCCACCT | -0.124 | -0.134 | -0.101 | -2.32 | -0.0865 | -0.475 | -0.595 | -0.24 | -0.0305 | -0.162
27 | CAACATG | 0.125 | 0.126 | -0.471 | -0.923 | 0.139 | -1.03 | 0.0715 | 0.0157 | 0.14 | -0.0933
28 | AGAATAT | 0.0255 | -0.0613 | 0.122 | -0.28 | 0.0486 | -0.0682 | -0.666 | 0.0286 | 0.02 | 0.0967
29 | AACCTTC | -0.0486 | -0.0304 | -0.068 | -0.671 | -0.0867 | -0.673 | -0.322 | -0.132 | -0.0851 | -0.0597
